# Measured values from ChEMBL document CHEMBL4888484, “Replenishing the malaria drug discovery pipeline: Screening and hit evaluation of the MMV Hit Generation Library 1 (HGL1) against asexual blood stage Plasmodium falciparum ,using a nano luciferase reporter read-out” (2022).
# The campaign covered roughly 150,000 compounds. About 540 (0.36%) showed an effect of 50% or more. Some of the results follow.
# Tested on: Plasmodium falciparum
# Assay: Primary screen in NF54 nanoGlo assay, in single point, at 2uM, 72h; a lower Z score goes with more inhibition
# Type: functional, Erythrocyte
# Conditions: timepoint 72 hour
Compound,% Inhibition,Z score
CC1=C(c2ccc(Cl)cc2)S(=O)(=O)N=C1N1CCC(C(=O)NCCN(C)C)CC1,-18%,1.96
CC1CCCN(S(=O)(=O)N2CCCC2CC(O)c2ccco2)C1 (stereo unspecified),-8%,0.74
O=C1C[C@H](c2ccccc2F)c2c[nH]nc2N1,5%,-0.54
Cc1ccc(C)n1CC(=O)NCCn1cnc2cc(Cl)ccc21,-8%,0.96
Cc1c(NC(=O)c2ccco2)cccc1-c1nc(C2CC2)n[nH]1,-11%,2.15
Cc1cc(F)cc(C(=O)N2C[C@H](O)[C@@H](N3CCN(C)CC3)C2)c1,-8%,1.41
CC[C@@](NC(=O)c1sc(C)nc1C)(C(N)=O)C(C)C,-2%,0.25
C[C@@H](C(N)=O)N(C)Cc1c(F)cccc1Cl,-16%,2.12
O=S(=O)(c1ccccc1)N1CCN(Cc2c(-c3ccc(Cl)cc3)nc3ccc(-c4cc5ccccc5s4)cn23)CC1,-11%,1.08
Cc1ncc(CNC[C@H]2CN(Cc3ccccc3)CCCO2)n1-c1ccccc1,2%,-0.29
COc1ccc(-c2nc(-c3ccc(Oc4ccc(NC(C)=O)cc4)cc3)no2)c(OC)c1,-10%,1.14
Cc1nc(C)c(CC(=O)NCc2cn3c(C)cccc3n2)s1,-16%,2.92
COCC1(C(=O)N2CCO[C@H](c3ccc(C)cc3C)C2)CCC1,-31%,3.64
COc1ccc(OCc2cc(C(=O)Nc3ccc4c(c3)OCO4)c(C)o2)cc1,-11%,2.12
O=C(N[C@H]1CCN(Cc2cccnc2)C[C@@H]1O)c1ccc2ncsc2c1,3%,-0.38
CCc1cnc(NC(=O)c2ccccc2-c2nnc(C)o2)s1,-2%,0.33
COc1ccc(OC)c(CNC(=O)c2csc(-c3ccnc(N4CCOCC4)c3)n2)c1,-13%,1.7
Cc1noc(Cn2ccc3ccn(Cc4cccnc4)c3c2=O)n1,-14%,1.23
Cc1ccc(C)c(C(=O)c2ccccc2C(=O)NCc2cnn(C)c2)c1,-3%,0.51
Cc1cc2c(cc1S(=O)(=O)N1CCC[C@H]1C(=O)N1CCc3ccccc31)OCC(=O)N2,-7%,0.85
CCCC(CCC)C(=O)Nc1ccccc1C(=O)O,-7%,0.9

Compound,% Inhibition,Z score
CC(C)(C)NC(=O)NCc1cncc(-c2ccsc2)c1,-6%,0.93
O=C(NC[C@H](O)c1ccc(O)cc1)c1cnc(-c2cccnc2)nc1,-2%,0.47
Cc1nn(C)c2nc(N3CCN(S(=O)(=O)N(C)C)CC3)sc12,-29%,3.39
Cc1ccc(S(=O)(=O)N2CCN(C(=O)CCn3nc(C)c(Br)c3C)CC2)cc1,-2%,0.33
COc1cc2c(cc1OC)[C@@H](c1ccccn1)N(C(C)=O)CC2,-25%,3.39
CCCCOc1cc(OCCC)ccc1C(=O)NC1CN(C(C)=O)C1,-11%,1.42
COc1ccc(NC(=O)c2coc(Br)c2)cn1,6%,-0.88
Cc1cc(C(=O)N(Cc2ccco2)C2CC2)on1,-15%,1.5
O=C(N[C@@H]1c2ccccc2CC[C@@H]1O)C1CCc2cccc(O)c21 (stereo partly specified),-12%,1.24
CC12CN(S(=O)(=O)c3ccc4c(c3)OCCO4)C3(C(=O)NCCc4ccccc4)CC1CCC23C (stereo unspecified),-11%,1.42
Cc1nc(N)ncc1C(=O)NC[C@@H]1C[C@H](F)CN1,-11%,1.58
COCc1nnc2c3ccc(Cl)cc3nc(N3CCN(C(=O)c4c(F)cccc4F)[C@@H](C)C3)n12,-20%,2.38
CC[C@@H]1Oc2ccc(NC(=O)c3ccccc3)cc2CN(C2CCCCC2)C1=O,-4%,0.49
CCCc1nnnn1Cc1nc2cc(C(F)(F)F)ccc2o1,0%,0.05
CCN1CCCC[C@@H]1CNc1ncccc1C(N)=O,1%,-0.2
CC(=O)c1c(C)[nH]c(C(=O)N2CCn3c2nc2ccccc23)c1C,-6%,1.07
CS(=O)(=O)C1(C(=O)NCC(=O)N2CCCC2)CCCC1,-3%,0.52
Cc1cc(Br)cn2c(CNC[C@@H](CO)c3cccnc3)cnc12,-7%,0.72
CC(C)CN(CC(=O)N(CCc1ccccc1)Cc1ccco1)C(=O)C1CCC1,-8%,0.77
Cc1c(Cl)cccc1S(=O)(=O)N1CCc2nc(-c3ccccc3)sc2C1,-6%,0.64
Cc1nc(C(=O)Nc2cccc3cccnc23)c[nH]1,15%,-1.76

Compound,% Inhibition,Z score
COc1ccccc1NC(=O)COc1ccccc1C(=O)Nc1nccs1,2%,-0.23
Cc1ccc(CNC(=O)[C@H]2CCCN(C3CCN(C(C)C)CC3)C2)s1,9%,-1.12
C[C@]1(NC(=O)Nc2cccc(-n3cncn3)c2)CCS(=O)(=O)C1,1%,-0.1
Cc1nc([C@H]2CC23CCN(Cc2c(F)cccc2F)CC3)no1,-10%,1.35
O=C(O)c1cc2n(n1)CCN(C1Cc3ccccc3C1)C2,-9%,1.63
CC(C)(C)[C@@H]1CN(C(=O)c2ncccc2O)c2ccccc21,-15%,2.38
Cc1ncsc1C(=O)Nc1ccc2c(c1F)CCNC2=O,-13%,2.07
O=S(=O)(C[C@H]1CCOC1)N1CCN(c2ccccc2O)CC1,-4%,0.36
CN1C(=O)[C@H](CC(=O)NCc2cccc(-c3ccccc3)c2)N(C)C1=O,-6%,0.97
COc1ccc(CN(C)C(=O)C[C@]2(c3ccccc3F)CC(=O)N(C3CCCCC3)C2=O)cc1OC,-2%,0.43
CC#CC[C@@H](CO)NCc1c(C)nc2sc(C)cn12,4%,-0.54
O=C(c1ccc(S(=O)(=O)N[C@H]2CCOC2)cc1)N1CCCC1,-6%,1.13
COc1ccc(NC(=O)Nc2nnc3cccc(OC)n23)cc1,-11%,1.23
CC(C)(C)CC(=O)N1CC(=O)N2CC[C@@H](CC(=O)NCCN3CCCC3)[C@@H](/C=C\COc3ccccc3C1)C2,-7%,1.08
C[C@H](Nc1cccc(N2CCCC2=O)c1)C(=O)Nc1ccc2ccccc2c1,-28%,3.34
CC(C)C[C@H]1CC(=O)N(Cc2nccn2C(C)C)C1,-2%,0.36
COc1ccc(C2CN(S(=O)(=O)c3ccccc3)CC2C(=O)NCc2ccccc2)c(OC)c1 (stereo unspecified),-23%,2.41
CCC[C@H]1CCN(C(=O)c2coc(COc3ccc(F)cc3Cl)n2)C1,-18%,2.25
CCCCc1nn(CC(=O)N2CCC[C@H](C#N)C2)c(=O)n1Cc1ccccc1,-17%,1.63
NC(=O)CC[C@@H]1N[C@@]2(C(=O)Nc3ccc(Cl)cc32)[C@H]2C(=O)N(CC3CCCO3)C(=O)[C@@H]12 (stereo partly specified),28%,-3.22
Cc1cc(C(=O)N2CCC(Oc3nc4ccccc4s3)CC2)on1,-11%,1.66

Compound,% Inhibition,Z score
COc1ccccc1N1CCN(Cc2nc(C(=O)NCCN3CCOCC3)co2)CC1,-9%,1.08
CN(C)C1CCN(C(=O)Nc2ccc(-c3ccccc3F)nn2)CC1,-17%,1.95
CC[C@H](NC(=O)Cc1ccccn1)c1cccs1,-5%,0.63
CC(C)c1nc(-c2noc(-c3ccsn3)n2)cs1,-19%,3.72
COCCN(CC(C)C)C(=O)Nc1cc(Cl)ccc1C,-15%,1.88
CC(C)NCc1cc2c(nc1O)CCCC2,0%,-0.01
COc1cc(C#N)ccc1Oc1ccc(NC(=O)NC[C@@]2(C)CC2(F)F)cc1,-8%,1.24
O=C(CCc1ccc2[nH]ccc2c1)N[C@H](CO)CN1CCOCC1,-5%,0.56
COc1ccc(-c2noc(-c3cccnc3N(C)C)n2)cc1,-4%,0.58
CC(C)CCn1ccc(NCc2nc(-c3cnn(C)c3)cs2)n1,-5%,0.59
CN=C(NCCCn1cc(C)cn1)N[C@@H](C)c1ccccc1OC,13%,-1.43
C[C@H](NC(=O)Nc1ccc(COC2CCCC2)cc1)C(=O)N(C)C,-3%,0.53
C[C@H](NS(=O)(=O)Cc1ccccc1)C(=O)NCc1cscn1,2%,-0.22
C#CCN1CCN(CC#C)[C@H](C(=O)N(C)C)C1,29%,-3.25
CCOc1cc(C(=O)N(C)C)ccc1NCc1cc(C#N)n(C)c1C,-13%,1.86
CC(C)n1cc(CN2C[C@@H](Oc3ccccc3)C[C@H]2C(N)=O)cn1,-11%,1.51
CC[C@](C)(NC(=O)Nc1nc(COC)cs1)c1nc(C)cs1,-8%,0.73
Fc1cccc2c(N3CC(NC4CCOCC4)C3)ncnc12,7%,-1.14
CCc1noc(C2CCC(NCc3ncccc3O)CC2)n1 (stereo unspecified),-4%,0.4
Cc1ccc(S(=O)(=O)N2CCN(CC(C)C)C(=O)C2)o1,27%,-3.08
